# In all, about 220,000 compounds went through this assay and about 5,700 (2.6%) were called active. Inconclusive means that the source gave no clear call. Such entries were picked first, then a sample of the others. Calls come from the whole dose curve; as a rule, active = well fitted inhibition curve with a large enough effect; inconclusive = small, poorly fitted or top-dose-only effect; inactive = no such curve, though single readings can be large or run the other way. Where the call is inconclusive, the potency comes from a doubtful curve fit.
# Target: Lysine-specific demethylase 5B (Homo sapiens) (UniProt Q9UGL1)
# UniProt Q9UGL1, sequence (Q9UGL1 whole entry, looked up): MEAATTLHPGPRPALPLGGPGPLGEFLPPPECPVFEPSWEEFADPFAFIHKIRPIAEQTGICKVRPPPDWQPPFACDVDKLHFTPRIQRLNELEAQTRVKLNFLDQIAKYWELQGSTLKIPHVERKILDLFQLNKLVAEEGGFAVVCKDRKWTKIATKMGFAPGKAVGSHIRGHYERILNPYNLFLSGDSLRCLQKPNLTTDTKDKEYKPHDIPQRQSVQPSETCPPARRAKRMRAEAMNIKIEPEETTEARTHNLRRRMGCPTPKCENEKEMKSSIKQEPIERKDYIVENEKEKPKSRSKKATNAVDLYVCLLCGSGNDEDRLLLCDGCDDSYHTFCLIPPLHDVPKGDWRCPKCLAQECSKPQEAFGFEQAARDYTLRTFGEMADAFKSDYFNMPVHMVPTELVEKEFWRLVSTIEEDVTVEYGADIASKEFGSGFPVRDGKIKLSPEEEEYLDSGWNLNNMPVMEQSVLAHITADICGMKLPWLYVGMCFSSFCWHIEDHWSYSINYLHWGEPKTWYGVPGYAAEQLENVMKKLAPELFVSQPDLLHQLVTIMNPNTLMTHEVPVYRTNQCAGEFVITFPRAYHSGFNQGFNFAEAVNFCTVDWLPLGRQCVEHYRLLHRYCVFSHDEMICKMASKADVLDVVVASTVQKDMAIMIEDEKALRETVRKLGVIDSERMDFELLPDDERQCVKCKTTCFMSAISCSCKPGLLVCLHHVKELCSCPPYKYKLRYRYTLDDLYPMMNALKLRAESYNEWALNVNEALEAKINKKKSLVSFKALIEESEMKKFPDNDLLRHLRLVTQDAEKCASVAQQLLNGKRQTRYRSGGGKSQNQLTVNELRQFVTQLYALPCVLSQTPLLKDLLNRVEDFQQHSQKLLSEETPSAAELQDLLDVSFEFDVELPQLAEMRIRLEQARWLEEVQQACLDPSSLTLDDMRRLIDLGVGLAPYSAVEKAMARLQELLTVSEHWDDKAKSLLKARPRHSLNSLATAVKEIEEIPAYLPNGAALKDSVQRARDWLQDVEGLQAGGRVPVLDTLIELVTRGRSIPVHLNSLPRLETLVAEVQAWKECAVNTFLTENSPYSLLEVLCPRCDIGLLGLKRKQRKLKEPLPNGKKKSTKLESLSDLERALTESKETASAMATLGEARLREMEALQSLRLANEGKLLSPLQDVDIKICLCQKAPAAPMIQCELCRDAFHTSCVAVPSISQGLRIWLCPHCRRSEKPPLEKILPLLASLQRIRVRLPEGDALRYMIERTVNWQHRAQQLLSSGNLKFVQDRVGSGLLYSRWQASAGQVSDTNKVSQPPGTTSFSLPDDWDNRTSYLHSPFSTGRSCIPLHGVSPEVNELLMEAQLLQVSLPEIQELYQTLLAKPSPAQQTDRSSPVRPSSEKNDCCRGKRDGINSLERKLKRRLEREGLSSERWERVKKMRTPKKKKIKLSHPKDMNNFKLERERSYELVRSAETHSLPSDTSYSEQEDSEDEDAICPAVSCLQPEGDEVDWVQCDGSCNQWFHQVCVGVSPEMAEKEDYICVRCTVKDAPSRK
# Test: Primary screen for KDM5B Histone Demethylases FDH-coupled qHTS; note: nearly all actives have a fitted effect of over 70% in size; for activity change, negative = inhibition: 0% is about no effect
# Details: FDH-coupled NADH fluorescence (FDH is formaldehyde dehydrogenase); activity change, negative = inhibition: at 57.7 µM (top of the series) unless noted
# In short: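 Inhibition is measured as reduced NADH fluorescence generation from FDH coupling to formaldehyde release. Truncated KDM5BΔAP at 200 nM final acts on H3K4me3 peptide (12.5 µM in substrate mix) in pH 7.5 HEPES buffer with Tween-20, 30 min, room temperature.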
# Potency is the fitted concentration of half-maximal effect; tags give direction and shape of the fitted curve.
Compound,Potency,"activity change, negative = inhibition"
O=C(NC1CCOC2(CCOCC2)C1)c1cn(CCN2CCNCC2)nn1 (stereo unspecified),"inconclusive: 17.8 µM [inhibitor, partial curve, poor fit]",
COc1ccc(-c2nn3c(-c4ccc(C(C)(C)C)cc4)nnc3s2)cc1OC,"inconclusive: 31.6 µM [inhibitor, single point]",
O=C(O)C(c1c(-c2ccccc2)[nH]c2ccccc12)N1CCN(Cc2ccccc2)CC1 (stereo unspecified),"inconclusive: 28.2 µM [inhibitor, partial curve, poor fit]",
Cc1c2c(nc3ccccc13)CCc1ccccc1-2,"inconclusive: 28.2 µM [inhibitor, single point]",
CC(C)(C)CC(=O)N1CCN2C(=O)c3cc(-c4ccccc4)ccc3NC(=O)[C@H]2C1,active: 31.6 µM,
Cc1ccc(NC(=S)NCC2(C)CC(NC(=S)Nc3ccc(C)cc3C)CC(C)(C)C2)c(C)c1 (stereo unspecified),inactive,
COc1ccc(-n2nc(C)c([C@H]3C=C[C@@H](OC(=O)Nc4cccc(F)c4)C3)c2C)cc1,"inconclusive: 35.5 µM [inhibitor, single point]",
CNC(=O)c1ccc(CN(C)C(=O)CCc2ncc(-c3ccc(C)cc3)o2)cc1,inactive,
Cc1ccc(NC(=O)C(C)N(C)Cc2ccc3c(c2)OCCO3)cc1F (stereo unspecified),inactive,
CCOC(=O)c1[nH]c2ccccc2c1NC(=O)c1c(F)cccc1F,"inconclusive: 39.8 µM [inhibitor, single point]",
CCOc1cccc(-c2cc(C(=O)Nc3ccon3)c3ccccc3n2)c1,"inconclusive: 25.1 µM [inhibitor, single point]",
Cc1c(C(=O)Nc2cccc(F)c2)sc2nc(-c3cc4ccccc4oc3=O)[nH]c(=O)c12,"inconclusive: 2.24 µM [inhibitor, full curve, poor fit]",
COc1ccc(C(=O)O)cc1S(=O)(=O)Nc1cc(Cl)ccc1Cl,inactive,
COc1ccc(NC(=O)c2c(NCc3cccs3)sc3c2CCCCC3)cc1,"inconclusive: 28.2 µM [inhibitor, partial curve, poor fit]",
CCc1ccc(NC(=O)C(=O)NCCc2sc(-c3ccc(OC)c(OC)c3)nc2C)cc1,"inconclusive: 25.1 µM [inhibitor, single point]",
O=C(O)c1ccc2c(c1)C(=O)N(CCc1c[nH]c3ccccc13)C2=O,"inconclusive: 28.2 µM [inhibitor, single point]",
COc1cc(OC)cc(C(=O)NCCc2csc(-c3cccc(C)c3)n2)c1,"inconclusive: 35.5 µM [inhibitor, single point]",
COc1ccccc1Cn1ccn(CC(=O)Nc2c(C)cc(C)cc2C)c(=O)c1=O,"inconclusive: 35.5 µM [inhibitor, single point]",
COc1cccc(OCc2nc3ccc(OC)cc3[nH]2)c1,inactive,
CC(C)CNC(=O)C(NC(=O)c1ccccc1Cl)C1CCN(C(=O)c2ccc(Cl)cc2)CC1 (stereo unspecified),"inconclusive: 35.5 µM [inhibitor, single point]",
Oc1ccc(Nc2nc(-c3ccc(O)cc3)cs2)cc1,"inconclusive: 20 µM [inhibitor, partial curve, poor fit]",
COc1cccc(C(c2sc3nc(-c4ccco4)nn3c2O)N2CCCC2)c1 (stereo unspecified),"inconclusive: 15.8 µM [inhibitor, partial curve, poor fit]",

Compound,Potency,"activity change, negative = inhibition"
COc1ccc(-c2ccc3ncn(C4CC4)c(=O)c3n2)cn1,active: 39.8 µM,
COc1ccc(C(=O)Nc2cnc3c(cnn3C(C)C)c2)cc1S(=O)(=O)N1CCCC1,inactive,
COc1ccc(CN2Cc3[nH]nc(-c4cccc(OC)c4OC)c3CC2=O)cc1,inactive,
CCCCc1nn(CC(=O)NC[C@H]2CCc3ccccc3O2)c(=O)n1CC,inactive,
CCOC(=O)CNC(=O)c1cc(-c2ccc(C)s2)nc2ccccc12,"inconclusive: 22.4 µM [inhibitor, partial curve, poor fit]",
Cc1cccc(OCC(=O)N2C[C@@H](CO)[C@H](c3ccccn3)C2)c1,inactive,
COc1cccc(CN2CC[C@@H]3C(=O)NCCCCCCN(Cc4ccncc4)[C@@H]3C2)c1OC,"inconclusive: 25.1 µM [inhibitor, partial curve, poor fit]",
O=C(c1cc(-c2ccccc2Cl)on1)N1CCCC1,"inconclusive: 39.8 µM [inhibitor, partial curve, poor fit]",
CCC(=O)Nc1ccc(-c2csc(Nc3cccc(OC)c3)n2)cc1,inactive,
CCOc1ccc(-c2cc3c(=O)n(CCNC(=O)c4ccc[nH]4)ccn3n2)cc1,"inconclusive: 3.55 µM [inhibitor, partial curve, poor fit]",
Clc1cccc(-c2nnc3sc(Cn4cccn4)nn23)c1Cl,inactive,
Cc1cn2cc(C(=O)N(CCCn3ccnc3)Cc3cccnc3)ccc2n1,"inconclusive: 22.4 µM [inhibitor, single point]",
CCCCNC(=O)CCCN1C(=O)CCn2nc(-c3cccn3C)cc21,,inconclusive: -31.3% [inhibitor]
COc1cccc(NC(=O)Cn2c(=O)n(-c3cccc(OC)c3)c(=O)c3sc4ccccc4c32)c1,"inconclusive: 28.2 µM [inhibitor, partial curve, poor fit]",
COc1cccc(NC(=O)c2ccc3c(c2)NC(C)(COCCN(C)C)CO3)c1 (stereo unspecified),"inconclusive: 31.6 µM [inhibitor, single point]",
COCCn1c(N(C)Cc2ccccc2)nc2c1c(=O)[nH]c(=O)n2C,inactive,
CC(=O)Nc1ccc(C(=O)N2CCN(c3cc(-c4ccc(F)cc4)[nH]n3)CC2)cc1,inactive,
CC(=O)Nc1ccc2c(CSc3nncs3)cc(=O)oc2c1,"inconclusive: 35.5 µM [inhibitor, partial curve, poor fit]",
CCCNC(=O)c1cccc(CNCc2cccnc2)c1,inactive,
CC1CC1C(=O)NCC1CCCC(CNC(=O)C2CC2C)C1 (stereo unspecified),inactive,
O=C1CCN(Cc2ccccc2OCC(O)CN2CCCCC2)CCN1 (stereo unspecified),inactive,
O=C(Cc1ccc(Cl)cc1)N1C[C@@H](CN2CCCCC2)[C@@H](CO)C1,inactive,

Compound,Potency,"activity change, negative = inhibition"
O=C(c1cccc2c1NCCC2)N1CCn2nc(C(O)C3CC3)cc2C1 (stereo unspecified),"inconclusive: 31.6 µM [inhibitor, single point]",
CC(NC(=O)C1(N2CCCCC2)Cc2ccccc2C1)c1cnn(C)c1 (stereo unspecified),"inconclusive: 20 µM [inhibitor, partial curve]",
CSc1ncccc1C(=O)Nc1cc(S(=O)(=O)N(C)C)cc(C)c1C,inactive,
O=C1NCc2ccccc2CC12CCCN2Cc1cccc(Cl)c1 (stereo unspecified),"inconclusive: 56.2 µM [inhibitor, partial curve, poor fit]",
O=C(c1ccco1)N1N=C(c2c(-c3ccccc3)c3cc(Cl)ccc3[nH]c2=O)CC1c1ccco1 (stereo unspecified),"inconclusive: 35.5 µM [inhibitor, partial curve, poor fit]",
O=C(NC[C@H]1O[C@@H](CO)[C@@H](O)[C@H]1N1CCCCC1)c1ccccc1,"inconclusive: 25.1 µM [inhibitor, single point]",
Cc1cccc(NC(=O)CSc2ncc3c(n2)-c2cc(C)ccc2N(C)S3(=O)=O)c1,"inconclusive: 39.8 µM [inhibitor, single point]",
Cc1ccsc1-c1[nH]nc2ncc(-c3cccnc3)nc12,inactive,
O=c1c2oc3ccccc3c2n(Cc2ccc(Cl)cc2)c(=O)n1Cc1ccc2c(c1)OCO2,"inconclusive: 1.78 µM [inhibitor, full curve, poor fit]",
Cc1ccc(SC(=O)c2c(C)noc2-c2cc(C)on2)cc1,"inconclusive: 22.4 µM [inhibitor, single point]",
CS(=O)(=O)c1ccc(OC[C@H]2C[C@@H](NC(=O)C3CCOCC3)[C@H](O)[C@@H]2O)cc1,active: 31.6 µM,
O=C(Oc1c(Sc2ccc(Cl)cc2)c(=O)oc2ccccc12)c1ccccc1,"inconclusive: 39.8 µM [inhibitor, single point]",
CNc1ncc(C(=O)N2CC[C@@](O)(COC)C(C)(C)C2)cn1,"inconclusive: 22.4 µM [inhibitor, single point]",
CC(=O)N1Cc2ccccc2CC2(CCN(Cc3ccncc3)C2)C1 (stereo unspecified),"inconclusive: 44.7 µM [inhibitor, partial curve, poor fit]",
COc1cccc2c1cc1c(=O)n(CC(=O)N3CCCCC3)nc(C)n12,"inconclusive: 28.2 µM [inhibitor, partial curve, poor fit]",
CC1CCC(Nc2ncncc2-c2nc(-c3ccccc3)no2)CC1 (stereo unspecified),inactive,
Cc1ccc2c(c1)cc(C(=O)NCc1cccs1)n2C,inactive,
COc1cccc(C2CC(=O)Nc3nc(N)sc32)c1OCc1ccccc1 (stereo unspecified),"inconclusive: 28.2 µM [inhibitor, partial curve, poor fit]",
CCOC(=O)c1[nH]c2ccccc2c1NC(=O)c1ccccc1F,"inconclusive: 35.5 µM [inhibitor, partial curve, poor fit]",
CS(=O)(=O)c1ccc(OCC2(CNS(=O)(=O)c3ccc(F)cc3)C[C@@H](O)[C@@H](O)C2)cc1 (stereo partly specified),"inconclusive: 22.4 µM [inhibitor, partial curve, poor fit]",
COc1ccc(OC)c(C(C(=O)NC2CCCCC2)N(C(=O)c2snc(C(N)=O)c2N)c2ccccc2OC)c1 (stereo unspecified),"inconclusive: 22.4 µM [inhibitor, partial curve, poor fit]",
Cc1ccn2cc(-c3c(-c4ccccc4Cl)n(C)c(=O)n(C)c3=O)nc2c1,"inconclusive: 3.55 µM [inhibitor, partial curve, poor fit]",
